# Laboratory results reported in the supplement of paper PMC10441789.
# The other results are listed elsewhere or left out. Antibody binding of pooled human sera (four to six donors per pool; dilution not stated) to peptides of the Trypanosoma cruzi antigen TSSA on microarrays. Quantile-normalised fluorescence in arbitrary units, mean of duplicate arrays; higher = more binding. No active / inactive call. The uninfected pools are read here as the healthy donors of the same country. The strongest signals lie near the top of the scale (about 60,000).
# What was measured:
# Assay in all cases: antibody binding signal (normalised fluorescence) (arbitrary fluorescence units); higher = stronger serum antibody binding to peptide
# [1] = system: pooled sera of chronic Chagas disease patients, Argentina
# Protocol: (§1)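 Microarray of 15-residue peptides over residues 30-55 of Trypanosoma cruzi TSSAII, each with 1 to 10 substitutions at naturally variable positions, probed with one serum pool per country.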
# [2] = system: pooled sera of chronic Chagas disease patients, Bolivia
# Protocol: as §1
# [3] = system: pooled sera of chronic Chagas disease patients, Brazil
# Protocol: as §1
# [4] = system: pooled sera of chronic Chagas disease patients, Colombia
# Protocol: as §1
# [5] = system: pooled sera of chronic Chagas disease patients, Mexico
# Protocol: as §1
# [6] = system: pooled sera of chronic Chagas disease patients, USA
# Protocol: as §1
# [7] = system: pooled sera of uninfected people, Argentina
# Protocol: as §1
# [8] = system: pooled sera of uninfected people, Bolivia
# Protocol: as §1
# [9] = system: pooled sera of uninfected people, Brazil
# Protocol: as §1
# [10] = system: pooled sera of uninfected people, Mexico
# Protocol: as §1
# [11] = system: pooled sera of uninfected people, USA
# Protocol: as §1
Sequence,antibody binding signal [1],antibody binding signal [2],antibody binding signal [3],antibody binding signal [4],antibody binding signal [5],antibody binding signal [6],antibody binding signal [7],antibody binding signal [8],antibody binding signal [9],antibody binding signal [10],antibody binding signal [11]
SGTENKAAAGGTPSQ,39600,6400,13700,2950,923,3740,313,441,775,193,131
GKDKKAATGGAPSPP,526,262,294,992,1020,1130,187,154,99.9,94.7,110
GKEKKAATGGTPSQP,1750,246,377,1920,2650,2250,252,108,160,273,94.8
GTDNKTAAGEAPSQP,5340,28900,41200,211,249,7340,165,513,1410,119,144
GTENKAAAGETPSQP,40900,5060,37800,4300,6280,4510,119,377,159,204,112
ISTPPSGKDNKTAAG,23800,1660,3140,1160,31900,3170,284,420,161,101,190
PPSGKDNKAAAGEAP,428,515,5200,715,2400,8400,445,702,175,134,192
KTAAGGTPSQSGASS,1070,186,229,5570,761,1060,384,169,269,672,201
KPAAGEAPSQPGASS,10100,33500,43300,142,234,11100,204,127,155,159,162
SSTPPSGKDKKPATG,28500,1840,7430,246,48800,1220,290,468,120,111,104
TEKKAATGGTPSQSG,1110,521,839,1240,1720,2000,470,186,791,268,256
GTENKTAAGETPSPP,30900,772,1080,1840,2740,2980,206,400,159,232,439
DKKTATGEAPSPSGA,10200,14000,8990,202,631,19900,284,100,166,238,170
GKENKTAAGGAPSQS,4250,518,8070,9710,7480,12900,358,114,126,134,147
KEKKAATGETPSQSG,551,360,7900,411,429,7410,232,91,107,124,124
GTENKAAAGGTPSQP,40600,954,2240,3200,816,1980,245,390,1200,601,93.3
PPSGKDKKTATGEAP,8700,2420,3430,1200,17800,15000,324,418,111,188,131
STPPSGKENKPATGE,34400,39800,34700,429,4610,21800,1920,2070,227,215,386
DKKAAAGEAPSPPGA,722,213,8200,379,400,11500,186,116,137,115,118
TDNKAATGEAPSQPG,27200,41700,44400,154,187,29100,255,248,202,105,105
GTDKKAATGEAPSPP,21500,23500,30900,2040,451,25400,445,242,145,258,167
PSGTEKKAATGGTPS,11200,907,4830,5720,7830,6170,659,430,924,272,304
GKDKKAAAGGAPSQP,240,215,532,1460,676,379,106,79.3,92.8,71.8,79
TENKAATGGTPSPSG,34100,1050,367,336,429,278,136,134,278,168,148
SGKDKKTATGEAPSP,9530,4800,5040,629,487,15200,204,96,99.5,85,105
GKEKKPATGETPSQS,29700,6640,23100,4720,6610,19400,202,190,99,639,305
GKDKKTATGGTPSQP,518,270,252,2010,858,1770,253,75.5,109,348,84.5

Sequence,antibody binding signal [1],antibody binding signal [2],antibody binding signal [3],antibody binding signal [4],antibody binding signal [5],antibody binding signal [6],antibody binding signal [7],antibody binding signal [8],antibody binding signal [9],antibody binding signal [10],antibody binding signal [11]
GTDNKTAAGETPSPP,156,306,28300,196,333,1110,178,668,1260,211,535
KPAAGGAPSPSGASS,146,197,331,1540,2280,607,265,142,127,87.3,189
GKDKKTAAGETPSQS,396,242,290,832,836,1130,112,118,82.7,76.5,77.8
TEKKPAAGETPSPSG,1050,192,1470,383,439,3010,111,289,262,309,2320
ISTPPSGTDKKAATG,32700,4540,33500,8290,41000,3850,474,132,148,1330,244
TDKKAAAGGTPSPPG,1300,206,196,5590,422,1570,129,105,1270,95.1,130
KKAAAGGAPSQPGAS,274,249,778,2130,214,273,202,125,134,86.4,195
GTENKPAAGEAPSQS,43200,22900,32100,2100,4410,17300,317,1550,293,165,109
PPSGTDKKAATGGAP,12400,4490,23400,3860,31500,2490,797,1040,151,2000,445
NKPAAGEAPSQSGAS,1230,25000,36000,298,256,17300,394,851,631,284,959
KDKKPATGGTPSQSG,369,202,174,413,205,407,221,92.1,278,93.8,97.8
GTENKTATGGTPSQP,33000,1950,1230,2270,1190,1430,399,403,365,1930,137
TEKKAATGGTPSQPG,934,418,1250,2360,1290,2620,475,159,817,559,259
GKEKKAAAGETPSQS,2210,281,633,1820,3430,3260,110,107,87.2,94.9,98.5
TDKKTATGETPSQSG,628,1170,4440,244,287,6770,319,184,316,242,113
TPPSGTENKAATGET,45700,37500,46000,311,2890,17200,1740,303,229,241,216
PPSGTENKPAAGGAP,54400,51900,52700,830,13100,21100,3900,3160,1060,585,1370
SGKEKKTAAGGTPSP,2310,271,2080,7910,4640,4950,144,96.8,295,141,166
SGKDNKPAAGEAPSQ,2280,15800,31200,1270,867,16700,461,734,206,401,94.6
TPPSGTENKPAAGET,50600,47000,50200,322,4570,32900,11400,1500,708,787,781
GKDNKTATGETPSQP,5690,3110,32800,8470,7720,9440,358,331,267,219,225
KEKKAAAGGAPSPPG,142,179,152,2310,200,515,99.3,87.6,119,81.2,91
TEKKAATGGTPSPPG,1710,575,404,3020,1020,1820,293,157,692,148,235
GKDKKAATGGTPSPS,437,259,191,482,779,720,142,84.2,144,73.3,98.5
KEKKTATGGTPSPSG,314,252,223,1060,211,1130,151,73.7,128,121,94.5
TDKKAATGETPSQSG,1490,2420,16100,187,413,10400,256,192,227,279,151
GTDKKAATGETPSQP,1820,1670,38100,2200,445,11500,417,296,308,312,201
